# Results reported in the supplement of paper PMC8728848.
# The list shows a part of the results.
# What was measured:
# Assay in all cases: glycan array binding signal (z-score within array); higher = stronger binding
# Settings in all cases: glycan notation: IUPAC condensed, linker removed
# [1] = target: Gal(b1-4)GlcNAc(b1-3)Gal(b1-4)GlcNAc(b1-2)[Gal(b1-4)GlcNAc(b1-3)Gal(b1-4)GlcNAc(b1-6)]Man(a1-6)[Gal(b1-4)GlcNAc(b1-3)Gal(b1-4)GlcNAc(b1-2)Man(a1-3)]Man(b1-4)GlcNAc(b1-4)GlcNAc
# Method in brief: (§1)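 Negative Z-scores can be read as non-binding. The Z-score is calculated within each array and then averaged across arrays of one protein sequence at different concentrations or buffers and across linkers. Arrays, 3228 in all, were curated from the Consortium for Functional Glycomics database and kept only where the protein sequence was available.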
# [2] = target: Gal(b1-4)GlcNAc(b1-3)Gal(b1-4)GlcNAc(b1-2)[Gal(b1-4)GlcNAc(b1-3)Gal(b1-4)GlcNAc(b1-6)]Man(a1-6)[Gal(b1-4)GlcNAc(b1-3)Gal(b1-4)GlcNAc(b1-2)Man(a1-3)]Man(b1-4)GlcNAc(b1-4)[Fuc(a1-6)]GlcNAc
# Method in brief: as §1
# [3] = target: Gal(b1-4)GlcNAc(b1-3)Gal(b1-4)GlcNAc(b1-3)Gal(b1-4)GlcNAc
# Method in brief: as §1
# [4] = target: Gal(b1-4)GlcNAc(b1-3)Gal(b1-4)GlcNAc(b1-3)Gal(b1-4)GlcNAc(b1-2)Man(a1-3)[Gal(b1-4)GlcNAc(b1-3)Gal(b1-4)GlcNAc(b1-3)Gal(b1-4)GlcNAc(b1-2)Man(a1-6)]Man(b1-4)GlcNAc(b1-4)GlcNAc
# Method in brief: as §1
# [5] = target: Gal(b1-4)GlcNAc(b1-3)Gal(b1-4)GlcNAc(b1-3)Gal(b1-4)GlcNAc(b1-2)Man(a1-3)[Gal(b1-4)GlcNAc(b1-3)Gal(b1-4)GlcNAc(b1-3)Gal(b1-4)GlcNAc(b1-2)Man(a1-6)]Man(b1-4)GlcNAc(b1-4)[Fuc(a1-6)]GlcNAc
# Method in brief: as §1
# [6] = target: Gal(b1-4)GlcNAc(b1-3)Gal(b1-4)GlcNAc(b1-3)Gal(b1-4)GlcNAc(b1-2)[Gal(b1-4)GlcNAc(b1-3)Gal(b1-4)GlcNAc(b1-3)Gal(b1-4)GlcNAc(b1-6)]Man(a1-6)[Gal(b1-4)GlcNAc(b1-3)Gal(b1-4)GlcNAc(b1-3)Gal(b1-4)GlcNAc(b1-2)Man(a1-3)]Man(b1-4)GlcNAc(b1-4)[Fuc(a1-6)]GlcNAc
# Method in brief: as §1
# [7] = target: Gal(b1-4)GlcNAc(b1-3)Gal(b1-4)GlcNAc(b1-3)Gal(b1-4)GlcNAc(b1-3)Gal(b1-4)GlcNAc(b1-2)Man(a1-3)[Gal(b1-4)GlcNAc(b1-3)Gal(b1-4)GlcNAc(b1-3)Gal(b1-4)GlcNAc(b1-3)Gal(b1-4)GlcNAc(b1-2)Man(a1-6)]Man(b1-4)GlcNAc(b1-4)GlcNAc
# Method in brief: as §1
# [8] = target: Gal(b1-4)GlcNAc(b1-3)Gal(b1-4)GlcNAc(b1-3)Gal(b1-4)GlcNAc(b1-3)Gal(b1-4)GlcNAc(b1-2)Man(a1-3)[Gal(b1-4)GlcNAc(b1-3)Gal(b1-4)GlcNAc(b1-3)Gal(b1-4)GlcNAc(b1-3)Gal(b1-4)GlcNAc(b1-2)Man(a1-6)]Man(b1-4)GlcNAc(b1-4)[Fuc(a1-6)]GlcNAc
# Method in brief: as §1
# [9] = target: Gal(b1-4)GlcNAc(b1-3)Gal(b1-4)GlcNAc(b1-3)Gal(b1-4)GlcNAc(b1-3)Gal(b1-4)GlcNAc(b1-2)[Gal(b1-4)GlcNAc(b1-3)Gal(b1-4)GlcNAc(b1-3)Gal(b1-4)GlcNAc(b1-3)Gal(b1-4)GlcNAc(b1-6)]Man(a1-6)[Gal(b1-4)GlcNAc(b1-3)Gal(b1-4)GlcNAc(b1-3)Gal(b1-4)GlcNAc(b1-3)Gal(b1-4)GlcNAc(b1-2)Man(a1-3)]Man(b1-4)GlcNAc(b1-4)[Fuc(a1-6)]GlcNAc
# Method in brief: as §1
# [10] = target: Gal(b1-4)GlcNAc(b1-3)Gal(b1-4)GlcNAc(b1-3)Gal(b1-4)GlcNAc(b1-3)Gal(b1-4)GlcNAc(b1-3)Gal(b1-4)GlcNAc(b1-2)Man(a1-3)[Gal(b1-4)GlcNAc(b1-3)Gal(b1-4)GlcNAc(b1-3)Gal(b1-4)GlcNAc(b1-3)Gal(b1-4)GlcNAc(b1-3)Gal(b1-4)GlcNAc(b1-2)Man(a1-6)]Man(b1-4)GlcNAc(b1-4)GlcNAc
# Method in brief: as §1
# [11] = target: Gal(b1-4)GlcNAc(b1-3)Gal(b1-4)GlcNAc(b1-3)Gal(b1-4)GlcNAc(b1-3)Gal(b1-4)GlcNAc(b1-3)Gal(b1-4)GlcNAc(b1-2)Man(a1-3)[Gal(b1-4)GlcNAc(b1-3)Gal(b1-4)GlcNAc(b1-3)Gal(b1-4)GlcNAc(b1-3)Gal(b1-4)GlcNAc(b1-3)Gal(b1-4)GlcNAc(b1-2)Man(a1-6)]Man(b1-4)GlcNAc(b1-4)[Fuc(a1-6)]GlcNAc
# Method in brief: as §1
# [12] = target: Gal(b1-4)GlcNAc(b1-3)Gal(b1-4)GlcNAc(b1-3)Gal(b1-4)GlcNAc(b1-3)Gal(b1-4)GlcNAc(b1-3)Gal(b1-4)GlcNAc(b1-2)[Gal(b1-4)GlcNAc(b1-3)Gal(b1-4)GlcNAc(b1-3)Gal(b1-4)GlcNAc(b1-3)Gal(b1-4)GlcNAc(b1-3)Gal(b1-4)GlcNAc(b1-6)]Man(a1-6)[Gal(b1-4)GlcNAc(b1-3)Gal(b1-4)GlcNAc(b1-3)Gal(b1-4)GlcNAc(b1-3)Gal(b1-4)GlcNAc(b1-3)Gal(b1-4)GlcNAc(b1-2)Man(a1-3)]Man(b1-4)GlcNAc(b1-4)[Fuc(a1-6)]GlcNAc
# Method in brief: as §1
# [13] = target: Gal(b1-4)GlcNAc(b1-3)Gal(b1-4)GlcNAc(b1-3)Gal(b1-4)GlcNAc(b1-3)Gal(b1-4)GlcNAc(b1-3)Gal(b1-4)GlcNAc(b1-3)Gal(b1-4)GlcNAc(b1-2)Man(a1-3)[Gal(b1-4)GlcNAc(b1-3)Gal(b1-4)GlcNAc(b1-3)Gal(b1-4)GlcNAc(b1-3)Gal(b1-4)GlcNAc(b1-3)Gal(b1-4)GlcNAc(b1-3)Gal(b1-4)GlcNAc(b1-2)Man(a1-6)]Man(b1-4)GlcNAc(b1-4)GlcNAc
# Method in brief: as §1
# [14] = target: Gal(b1-4)GlcNAc(b1-3)Gal(b1-4)GlcNAc(b1-3)GalNAc
# Method in brief: as §1
# [15] = target: Gal(b1-4)GlcNAc(b1-3)Gal(b1-4)GlcNAc(b1-3)[Gal(b1-4)GlcNAc(b1-3)Gal(b1-4)GlcNAc(b1-6)]GalNAc
# Method in brief: as §1
# [16] = target: Gal(b1-4)GlcNAc(b1-3)Gal(b1-4)GlcNAc(b1-6)[Gal(b1-3)]GalNAc
# Method in brief: as §1
# [17] = target: Gal(b1-4)GlcNAc(b1-3)Gal(b1-4)[Fuc(a1-3)]GlcNAc(b1-3)Gal(b1-4)[Fuc(a1-3)]GlcNAc
# Method in brief: as §1
# [18] = target: Gal(b1-4)GlcNAc(b1-3)GalNAc
# Method in brief: as §1
# [19] = target: Gal(b1-4)GlcNAc(b1-3)[Fuc(a1-3)GlcNAc(b1-6)]Gal(b1-4)Glc
# Method in brief: as §1
# [20] = target: Gal(b1-4)GlcNAc(b1-3)[Gal(b1-4)GlcNAc(b1-6)]Gal(b1-4)GlcNAc
# Method in brief: as §1
# [21] = target: Gal(b1-4)GlcNAc(b1-3)[GlcNAc(b1-6)]Gal(b1-4)GlcNAc
# Method in brief: as §1
# [22] = target: Gal(b1-4)GlcNAc(b1-6)Gal(b1-4)GlcNAc
# Method in brief: as §1
# [23] = target: Gal(b1-4)GlcNAc(b1-6)GalNAc
# Method in brief: as §1
# [24] = target: Gal(b1-4)GlcNAc(b1-6)[Gal(b1-3)]GalNAc
# Method in brief: as §1
# [25] = target: Gal(b1-4)GlcNAc(b1-6)[Gal(b1-4)GlcNAc(b1-3)]GalNAc
# Method in brief: as §1
# [26] = target: Gal(b1-4)GlcNAc6P
# Method in brief: as §1
# [27] = target: Gal(b1-6)Gal
# Method in brief: as §1
# [28] = target: Gal3S(b1-3)GalNAc
# Method in brief: as §1
# [29] = target: Gal3S(b1-3)GlcNAc
# Method in brief: as §1
# [30] = target: Gal3S(b1-3)[Fuc(a1-4)]GlcNAc
# Method in brief: as §1
binder,measurement,setting,value
BT3172pd (Bacteroides thetaiotaomicron) (protein) MLPLRAEHYYYKQISLKEGLPSNVRCILRDEQGFIWIGTKAGLGKFDGHQLKRYKHQANDPHSLLHNLIYQIAEDKQHNIWILTEKGIARYQQQSNNFTFPTDEEGNYITAYSFCLVPDGILFGGKDRIYKYSYKDSSLRLLQYFNANSFKITALSVWDSKTLLCCSRWTGLYLVDLQTGEHRRPPFDCGPEITSMITDSKNRIWIAPYSGGLRCYSRDGKLSASYTTHNSSLSNDIVLSLAEREEQLWIGTDGGGINILHPETGEISQLEYIPGRENYSLPANSILCLHNDYNNNVWAGSTCNGLISIREVSMKTYTDVVPGNDRGLSNGTVRSLYRQSPDSIWIGTDGGGINLFSPHTEKFTHYSSTWGDKVAFISGFTPGKLLISLFSKGVFVFNPATGEKQPFTIIDKETTTRLCNRGKSVNLYQNTPNTVLFLGDHIYQYHLKEKKFSTITEEEGKDIVGTLVPFDHQENLTYINDIKHIYELDDQTSRLKTVFECYTDTVISSVSHDEQGHFWIGSNFGLIHYDPVLKSRTLVPTNLFTEINMVLCDQKGKVWIGVDNMLFAYFIKEQKFVLFGESNGAIQNEYLPNARLVNEQGDAYIGGVKGMLRIDGQLLLNTSEMPELQLLDITINGESANHEWYNHPAKISVPWNSNISIRIMSREEDIFRQKIYRYQIEGLNNEYTESYNPELVIRSLLPGSYRIMASCTAKDGSWIPDQQVLELTVLPPWYRTHHHHHH,glycan array binding signal (z-score),[1],0.067
same,glycan array binding signal (z-score),[2],-0.402
same,glycan array binding signal (z-score),[3],-0.392
same,glycan array binding signal (z-score),[4],-0.375
same,glycan array binding signal (z-score),[5],-0.608
same,glycan array binding signal (z-score),[6],-0.545
same,glycan array binding signal (z-score),[7],1.06
same,glycan array binding signal (z-score),[8],-0.405
same,glycan array binding signal (z-score),[9],0.273
same,glycan array binding signal (z-score),[10],5.07
same,glycan array binding signal (z-score),[11],0.028
same,glycan array binding signal (z-score),[12],0.669
same,glycan array binding signal (z-score),[13],-0.144
same,glycan array binding signal (z-score),[14],-0.264
same,glycan array binding signal (z-score),[15],-0.344
same,glycan array binding signal (z-score),[16],-0.435
same,glycan array binding signal (z-score),[17],-0.565
same,glycan array binding signal (z-score),[18],0.072
same,glycan array binding signal (z-score),[19],-3.26
same,glycan array binding signal (z-score),[20],1.31
same,glycan array binding signal (z-score),[21],-0.406
same,glycan array binding signal (z-score),[22],-0.464
same,glycan array binding signal (z-score),[23],1.4
same,glycan array binding signal (z-score),[24],-1.05
same,glycan array binding signal (z-score),[25],-0.42
same,glycan array binding signal (z-score),[26],-0.486
same,glycan array binding signal (z-score),[27],-0.085
same,glycan array binding signal (z-score),[28],0.067
same,glycan array binding signal (z-score),[29],-1.38
same,glycan array binding signal (z-score),[30],-0.189
